# According to the supplement of paper PMC10126150:
# Values marked as one replicate rest on one cluster of the flow cell; about a third of the high ones do not repeat.
# Tested on: ATP
# Assay: switch fluorescence ratio, 500 uM ATP over buffer (Cy3 cluster intensity, sum of 5 cycles each) (fold (ratio)); higher = stronger signal-on switching upon ATP binding; sequences stand for … in TCGTCGGCAGCGTCAGATGTGTATAAGAGACAGTTTTTTTTTTTTTTTTTTTTTTTTT…TC
# Conditions: aptamer strand: ATP DNA aptamer (quencher-CACCTGGGGGAGTATTGCGGAGGAAGG + anchor), 100 nM annealed; ATP concentration: 500 uM; one replicate
# Method in brief: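 Imaging in selection buffer was followed by imaging after 15 min with 500 uM ATP at 22 °C, for Cy3-labelled switching-strand clusters annealed to 100 nM quencher-labelled ATP aptamer on a modified Illumina MiSeq flow-cell. Five of these buffer/ATP cycles ran, separated by NaOH stripping and re-annealing. The fluorescence ratio per cluster is summed target-cycle over summed buffer-cycle Cy3 intensity, averaged per switch-domain sequence; clusters outside 100-1000 RFU were removed.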
# 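Note: ATP exposure 15 min at 22 °C before imaging.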
row,Sequence,switch fluorescence ratio
1,TTTATGGTCT,1.04
2,TTTATGGTGC,0.994
3,TTTATTGCTT,0.961
4,TTTATTTACC,1.06
5,TTTCAAATGC,0.992
6,TTTCAACACA,0.978
7,TTTCAACTGT,1
8,TTTCAATTGG,1.03
9,TTTCACCAGC,1.01
10,TTTCAGATAC,1.13
11,TTTCAGCGTC,1.11
12,TTTCATATC,1.06
13,TTTCCAATCA,1.14
14,TTTCCACTTC,1.04
15,TTTCCATCAT,1
16,TTTCCATGGC,0.991
17,TTTCCCTGGA,1.03
18,TTTCCGTGCG,1.14
19,TTTCCGTGGG,0.991
20,TTTCCTAAAT,0.992
21,TTTCCTCGCG,2.48
22,TTTCGACTAG,1.01
23,TTTCGCACCT,1.03
24,TTTCGCAGCC,1.37
25,TTTCGCCGTA,0.98
26,TTTCGCTGCG,0.941

row,Sequence,switch fluorescence ratio
1,TTTCGCTTCT,1.93
2,TTTCGCTTTC,1.04
3,TTTCGGCCTA,1.01
4,TTTCGTGAAG,1
5,TTTCGTTTGT,1.12
6,TTTCTAAAA,0.978
7,TTTCTATCTG,0.993
8,TTTCTATTC,1
9,TTTCTATTCC,1.02
10,TTTCTCACA,1.09
11,TTTCTCCGCG,4.46
12,TTTCTCTCCT,1.55
13,TTTCTGGGAT,0.99
14,TTTCTGGTG,1.02
15,TTTCTGTGA,1
16,TTTCTGTGC,0.988
17,TTTCTTAGGA,0.981
18,TTTCTTCATT,0.974
19,TTTGAACCAT,0.971
20,TTTGAACTAT,1.01
21,TTTGACCTTT,0.979
22,TTTGACGCTC,1.02
23,TTTGACGTTA,1
24,TTTGAGAGTC,1.02
25,TTTGAGCTT,0.997
26,TTTGATACTA,1.03

row,Sequence,switch fluorescence ratio
1,TTTGCAACGT,1.04
2,TTTGCCCACG,1.01
3,TTTGCCCCCC,1.44
4,TTTGCCCGGC,1.1
5,TTTGCCCTCT,0.978
6,TTTGCCGATA,1.03
7,TTTGCCTCT,0.997
8,TTTGCGCTTA,0.963
9,TTTGCGTTTG,0.916
10,TTTGCTATAA,1.34
11,TTTGCTTTAG,0.963
12,TTTGGAATGT,1.07
13,TTTGGACGTT,0.98
14,TTTGGCCTGG,1
15,TTTGGCCTTG,1.04
16,TTTGGCGGCA,1.03
17,TTTGGCTGCG,1.04
18,TTTGGTGCAT,0.997
19,TTTGTAGAT,1.03
20,TTTGTATAAA,0.975
21,TTTGTCATGA,1.03
22,TTTGTGCAAC,0.971
23,TTTGTGGCCT,1.02
24,TTTGTGGCT,1
25,TTTGTGTCGG,0.97
26,TTTGTTGT,1

row,Sequence,switch fluorescence ratio
1,TTTTAAAATC,0.98
2,TTTTAAATAT,0.985
3,TTTTACAC,1.09
4,TTTTACAGAC,1.06
5,TTTTACCGTG,0.962
6,TTTTACCTCG,1.03
7,TTTTAGAATA,0.973
8,TTTTAGCAGG,1.02
9,TTTTATACTA,1.06
10,TTTTATATTC,0.963
11,TTTTCACAGC,1.06
12,TTTTCAGCTC,0.988
13,TTTTCAGGTT,1.18
14,TTTTCATGAA,0.968
15,TTTTCCACCT,1.04
16,TTTTCCCCGG,1.01
17,TTTTCCGGAT,1.39
18,TTTTCCGGCT,1.03
19,TTTTCGA,1.03
20,TTTTCGCACA,1.44
21,TTTTCGGATA,1.07
22,TTTTCGGTTG,0.964
23,TTTTCGTGTA,0.944
